Legend:
[1] = test system: basic fibroblast growth factor-induced angiogenesis; conditions: prior art statement; cited from earlier work
angiogenesis = conditions: prior art statement; cited from earlier work
[2] = test system: tumor necrotic factor-alpha (TNF-I); conditions: prior art statement; cited from earlier work
[3] = test system: metastatic and locally advanced hepatocellular carcinoma; experiment: thalidomide treatment of two patients with metastatic and locally advanced hepatocellular carcinoma (Example 3); format: in vivo; conditions: thalidomide 100 mg twice daily, tested every 2-4 weeks
Description: Thalidomide was administered 100 mg twice daily. They were subjected to serum alpha-fetoprotein test every 2-4 weeks and computed tomography or magnetic resonance image examination every 4-8 weeks.

**Q.** For `O=C1CCC(N2C(=O)c3ccccc3C2=O)C(=O)N1` (stereo not shown) [thalidomide, 2-(2,6-dioxo-3-piperidinyl)-1H-isoindolle-1,3(2H)-dione], which “inhibition of basic fibroblast growth factor-induced angiogenesis” value [1] is on record?
**A.** effectively inhibit

**Q.** And the inhibition of angiogenesis (angiogenesis)?
**A.** effectively inhibit angiogenesis

**Q.** What about the “inhibition of tumor necrotic factor-alpha (TNF-I)” value [2] of the same compound?
**A.** effectively inhibit

**Q.** And the “serum alpha-fetoprotein level (Figures 6 and 7)” value [3]?
**A.** significant reduced

Reference: patent EP1226824A1, “Use of thalidomide for the treatment of hepatocellular carcinoma” (TTY Biopharm Company Limited, priority 2001, dated 2002)
